# In the supplement of paper PMC8728848:
# Some of the results follow.
# B1: Epa1to9 (Candida glabrata) (protein)
# chain: MGSSHHHHHHSSGLVPRGSHMTSSNDISLASKDPTTFPLGCSPDITTPKKGLSMELYSYDFRKKGSYPCWDAAYLDPNYPRTGYKSHRLLAKVDGVTGNINFYYHATKGCTPQLGHLPASYNYPKPLTMTNFTMLLYGYFRPKVTGFHTFTISADDLLFVNFGAGNAFDCCRRDSSADHFGNYQAYAIWGSKTAKDELTVHLDAGVYYPIRLFYNNRDYHGALSFTFKTESNENTVSDFSEYFFSLDDTEEGCPGLISYD
# Key:
# Experiment in all cases: glycan array binding signal (z-score within array); higher = stronger binding
# Settings in all cases: glycan notation: IUPAC condensed, linker removed
# Gal(a1-3)Gal = molecular target: Gal(a1-3)Gal
# Procedure, shortened: (§1)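 Glycan array binding is given as a within-array Z-score, which can be read as non-binding when negative. The arrays, 3228 of them, came from the Consortium for Functional Glycomics database and were retained only where the protein sequence was available. Z-scores were averaged across arrays of the same protein sequence at different concentrations or buffers and across linkers.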
# Gal(a1-3)Gal(b1-3)GlcNAc = molecular target: Gal(a1-3)Gal(b1-3)GlcNAc
# Procedure, shortened: as §1
# [1] = molecular target: Gal(a1-3)Gal(b1-3)GlcNAc(b1-2)Man
# Procedure, shortened: as §1
# [2] = molecular target: Gal(a1-3)Gal(b1-3)GlcNAc(b1-2)Man(a1-3)[Gal(a1-3)Gal(b1-3)GlcNAc(b1-2)Man(a1-6)]Man(b1-4)GlcNAc(b1-4)GlcNAc
# Procedure, shortened: as §1
# [3] = molecular target: Gal(a1-3)Gal(b1-3)GlcNAc(b1-3)GalNAc
# Procedure, shortened: as §1
# [4] = molecular target: Gal(a1-3)Gal(b1-3)GlcNAc(b1-6)GalNAc
# Procedure, shortened: as §1
# [5] = molecular target: Gal(a1-3)Gal(b1-3)[Fuc(a1-4)]GlcNAc(b1-2)Man(a1-3)[Gal(a1-3)Gal(b1-3)[Fuc(a1-4)]GlcNAc(b1-2)Man(a1-6)]Man(b1-4)GlcNAc(b1-4)GlcNAc
# Procedure, shortened: as §1
# Gal(a1-3)Gal(b1-4)Glc = molecular target: Gal(a1-3)Gal(b1-4)Glc
# Procedure, shortened: as §1
# Gal(a1-3)Gal(b1-4)GlcNAc = molecular target: Gal(a1-3)Gal(b1-4)GlcNAc
# Procedure, shortened: as §1
# [6] = molecular target: Gal(a1-3)Gal(b1-4)GlcNAc(b1-2)Man
# Procedure, shortened: as §1
# [7] = molecular target: Gal(a1-3)Gal(b1-4)GlcNAc(b1-2)Man(a1-3)[Gal(a1-3)Gal(b1-4)GlcNAc(b1-2)Man(a1-6)]Man(b1-4)GlcNAc(b1-4)GlcNAc
# Procedure, shortened: as §1
# [8] = molecular target: Gal(a1-3)Gal(b1-4)GlcNAc(b1-3)GalNAc
# Procedure, shortened: as §1
# [9] = molecular target: Gal(a1-3)Gal(b1-4)GlcNAc(b1-6)GalNAc
# Procedure, shortened: as §1
# [10] = molecular target: Gal(a1-3)Gal(b1-4)[Fuc(a1-3)]GlcNAc
# Procedure, shortened: as §1
# [11] = molecular target: Gal(a1-3)Gal(b1-4)[Fuc(a1-3)]GlcNAc(b1-2)Man(a1-3)[Gal(a1-3)Gal(b1-4)[Fuc(a1-3)]GlcNAc(b1-2)Man(a1-6)]Man(b1-4)GlcNAc(b1-4)GlcNAc
# Procedure, shortened: as §1
# Gal(a1-3)GalNAc = molecular target: Gal(a1-3)GalNAc
# Procedure, shortened: as §1
# [12] = molecular target: Gal(a1-3)[Gal(a1-4)]Gal(b1-4)GlcNAc
# Procedure, shortened: as §1
# [13] = molecular target: Gal(a1-4)Gal(b1-3)GlcNAc(b1-2)Man(a1-3)[Gal(a1-4)Gal(b1-3)GlcNAc(b1-2)Man(a1-6)]Man(b1-4)GlcNAc(b1-4)GlcNAc
# Procedure, shortened: as §1
# Gal(a1-4)Gal(b1-4)Glc = molecular target: Gal(a1-4)Gal(b1-4)Glc
# Procedure, shortened: as §1
# Gal(a1-4)Gal(b1-4)GlcNAc = molecular target: Gal(a1-4)Gal(b1-4)GlcNAc
# Procedure, shortened: as §1
# [14] = molecular target: Gal(a1-4)Gal(b1-4)GlcNAc(b1-2)Man(a1-3)[Gal(a1-4)Gal(b1-4)GlcNAc(b1-2)Man(a1-6)]Man(b1-4)GlcNAc(b1-4)GlcNAc
# Procedure, shortened: as §1
# [15] = molecular target: Gal(a1-4)Gal(b1-4)GlcNAc(b1-3)Gal(b1-4)Glc
# Procedure, shortened: as §1
# Gal(a1-4)GlcNAc = molecular target: Gal(a1-4)GlcNAc
# Procedure, shortened: as §1
# Gal(a1-6)Glc = molecular target: Gal(a1-6)Glc
# Procedure, shortened: as §1
# Gal(b1-2)Gal = molecular target: Gal(b1-2)Gal
# Procedure, shortened: as §1
# Gal(b1-3)Gal = molecular target: Gal(b1-3)Gal
# Procedure, shortened: as §1
# Gal(b1-3)Gal(b1-4)GlcNAc = molecular target: Gal(b1-3)Gal(b1-4)GlcNAc
# Procedure, shortened: as §1
# Gal(b1-3)GalNAc = molecular target: Gal(b1-3)GalNAc
# Procedure, shortened: as §1
# [16] = molecular target: Gal(b1-3)GalNAc(a1-3)[Fuc(a1-2)]Gal(b1-4)Glc
# Procedure, shortened: as §1
# [17] = molecular target: Gal(b1-3)GalNAc(a1-3)[Fuc(a1-2)]Gal(b1-4)GlcNAc
# Procedure, shortened: as §1
# Gal(b1-3)GalNAc(b1-3)Gal = molecular target: Gal(b1-3)GalNAc(b1-3)Gal
# Procedure, shortened: as §1
# [18] = molecular target: Gal(b1-3)GalNAc(b1-3)Gal(a1-4)Gal(b1-4)Glc
# Procedure, shortened: as §1
# [19] = molecular target: Gal(b1-3)GalNAc(b1-4)Gal(b1-4)Glc
# Procedure, shortened: as §1
# [20] = molecular target: Gal(b1-3)GalNAc(b1-4)[Neu5Ac(a2-3)]Gal(b1-4)Glc
# Procedure, shortened: as §1
# Gal(b1-3)GlcNAc = molecular target: Gal(b1-3)GlcNAc
# Procedure, shortened: as §1
# [21] = molecular target: Gal(b1-3)GlcNAc(a1-3)Gal(b1-4)GlcNAc
# Procedure, shortened: as §1
# [22] = molecular target: Gal(b1-3)GlcNAc(a1-6)Gal(b1-4)GlcNAc
# Procedure, shortened: as §1
# Gal(b1-3)GlcNAc(b1-2)Man = molecular target: Gal(b1-3)GlcNAc(b1-2)Man
# Procedure, shortened: as §1
binder,measurement,setting,value
B1,glycan array binding signal (z-score),Gal(a1-3)Gal,0.432
same,glycan array binding signal (z-score),Gal(a1-3)Gal(b1-3)GlcNAc,0.327
same,glycan array binding signal (z-score),[1],0.245
same,glycan array binding signal (z-score),[2],-0.189
same,glycan array binding signal (z-score),[3],0.002
same,glycan array binding signal (z-score),[4],0.165
same,glycan array binding signal (z-score),[5],-0.268
same,glycan array binding signal (z-score),Gal(a1-3)Gal(b1-4)Glc,0.06
same,glycan array binding signal (z-score),Gal(a1-3)Gal(b1-4)GlcNAc,0.858
same,glycan array binding signal (z-score),[6],0.008
same,glycan array binding signal (z-score),[7],0.227
same,glycan array binding signal (z-score),[8],0.082
same,glycan array binding signal (z-score),[9],0.192
same,glycan array binding signal (z-score),[10],0.318
same,glycan array binding signal (z-score),[11],-0.204
same,glycan array binding signal (z-score),Gal(a1-3)GalNAc,0.224
same,glycan array binding signal (z-score),[12],0.179
same,glycan array binding signal (z-score),[13],0.962
same,glycan array binding signal (z-score),Gal(a1-4)Gal(b1-4)Glc,0
same,glycan array binding signal (z-score),Gal(a1-4)Gal(b1-4)GlcNAc,1.39
same,glycan array binding signal (z-score),[14],0.928
same,glycan array binding signal (z-score),[15],0.39
same,glycan array binding signal (z-score),Gal(a1-4)GlcNAc,1.94
same,glycan array binding signal (z-score),Gal(a1-6)Glc,0.731
same,glycan array binding signal (z-score),Gal(b1-2)Gal,1.57
same,glycan array binding signal (z-score),Gal(b1-3)Gal,2.22
same,glycan array binding signal (z-score),Gal(b1-3)Gal(b1-4)GlcNAc,4.22
same,glycan array binding signal (z-score),Gal(b1-3)GalNAc,2.83
same,glycan array binding signal (z-score),[16],2.21
same,glycan array binding signal (z-score),[17],2.4
same,glycan array binding signal (z-score),Gal(b1-3)GalNAc(b1-3)Gal,3.67
same,glycan array binding signal (z-score),[18],1.22
same,glycan array binding signal (z-score),[19],4.67
same,glycan array binding signal (z-score),[20],2.83
same,glycan array binding signal (z-score),Gal(b1-3)GlcNAc,0.268
same,glycan array binding signal (z-score),[21],-0.328
same,glycan array binding signal (z-score),[22],-0.131
same,glycan array binding signal (z-score),Gal(b1-3)GlcNAc(b1-2)Man,0.303
